Structures are written as SMILES. Values joined by “and” are separate entries in the source; they are usually repeats but may differ in a detail not shown here. Equal values may be shown once. Screen size: about 48,000 compounds; about 1,200 (2.5%) were called active. Another 2% or so got no clear call; they are omitted.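 How the source made its calls: active means activation of at least 60% and not above a set upper limit (about 1 call in 100 departs from these limits); inconclusive means activation of 40% to 60%, or above that upper limit; inactive means activation under 40%.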 The list shows a part of the results.

Chain of UniProt O75388 (O75388 whole entry, looked up): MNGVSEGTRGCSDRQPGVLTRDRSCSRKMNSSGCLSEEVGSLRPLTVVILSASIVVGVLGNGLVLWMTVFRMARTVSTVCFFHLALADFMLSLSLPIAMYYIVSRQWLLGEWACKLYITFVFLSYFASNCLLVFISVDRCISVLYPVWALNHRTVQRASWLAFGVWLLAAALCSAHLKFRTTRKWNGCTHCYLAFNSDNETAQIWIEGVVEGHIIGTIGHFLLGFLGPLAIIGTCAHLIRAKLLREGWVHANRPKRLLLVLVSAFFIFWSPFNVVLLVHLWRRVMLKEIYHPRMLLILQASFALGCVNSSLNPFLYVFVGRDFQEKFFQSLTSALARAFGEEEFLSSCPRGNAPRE

The assay deals with Probable G-protein coupled receptor 32 (Homo sapiens) (UniProt O75388). The assay is described as follows: qHTS for Agonists of Human Resolvin D1 Receptor DRV1. Conditions: CHO-K1 GPR32 beta-arrestin PathHunter luminescence, 90 min; at 76.9 µM; active compounds read high; zero percent set by DMSO-only wells. A digest of the protocol:
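Using DMSO wells as EC0, agonist-induced signal was taken as chemiluminescence from beta-Gal reconstituted upon beta-arrestin recruitment to GPR32 in CHO-K1 cells after 90 min compound treatment.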
In general terms: qHTS replaces the single test concentration by a dilution series.
As to `CCc1ccc(NC(=O)C(=O)NCCc2csc(-c3cccc(F)c3)n2)cc1`, the activation is inactive: -0.827%.

On to `Cc1ccc(C)c(Nc2nnc(-c3ccc(C)c(S(=O)(=O)N4CCN(C)CC4)c3)c3ccccc23)c1`, for which the activation is inactive: 10.3%. With `CCOc1ccc(NC(=O)CSc2oc(-c3cccs3)nc2S(=O)(=O)c2ccc(C)cc2)cc1` the figure was inactive: -0.215%; with `CCn1nc(C)c2c(-c3ccccc3)cc(=O)n(C(C)C(=O)Nc3cccc(F)c3)c21` (configuration not stated), inactive: -12%; with `Cc1ccc(C2=CC(c3ccccc3C)n3c(nc4ccccc43)N2)cc1` (configuration not stated), inactive: -11.4%. Turning to `CCCc1c2oc(C(=O)O)cc(=O)c2cc2c(=O)cc(C(=O)O)n(CC)c12`, the activation was inactive: -52.6%. Next, `Cc1ccn2c(Nc3ccccc3C)c(-c3ccc(N4CCOCC4)cc3)nc2c1`: inactive: -18.7%; `O=C(COc1ccc(Cl)cc1)NCC(c1ccco1)S(=O)(=O)c1ccccc1` (configuration not stated): inactive: -5.65%. Take `COc1ccccc1NC(=O)c1sc2nc3c(c(C(F)(F)F)c2c1N)CN(C(C)=O)CC3`: the activation was inactive: 7.58%.

Regarding `Cc1ccccc1CCNC(=O)c1ccc(NC(=O)N2CC(C)Sc3ccccc32)cc1` (configuration not stated), the activation is inactive: -18.3%.

Consider `Cc1nn(-c2ccc(N3CCOCC3)nn2)c(C)c1CCC(=O)NCc1ccccc1`, for which the activation was inactive: 1.5%. With `Cc1cc(C)c(NC(=O)CSc2n[nH]c(-c3ccccc3Cl)n2)c(C)c1` the figure was inactive: -0.867%; with `Cc1ccccc1-c1nnc(SCC(=O)N(C)c2ccccc2)o1`, inactive: -6.05%. Next, `COc1cc(C(=O)N2CCNC(=O)C2CC(=O)Nc2ccc(C)c(C)c2)cc(OC)c1OC` (configuration not stated): inactive: -31%. With `CCCCNc1nc2c(-c3cccc(C)c3)nnn2c2ccccc12` the figure was inactive: -4.11%; with `Cc1ccc(/C=C/c2onc(C)c2S(=O)(=O)N2CCC(C(=O)Nc3ccc(OC(F)(F)F)cc3)CC2)cc1`, inactive: -9.36%; with `Cc1cccc(OCC(=O)Nc2cccc(C(=O)OCc3cc(=O)n4nc(C(C)C)sc4n3)c2)c1`, inactive: -12.4%.

Take `Cc1ccc(S(=O)(=O)Nc2cc3c(C(=O)OCc4ccccc4)c(C)oc3c3ccccc23)c(C)c1`: the activation is inactive: 9.2%.

Turning to `COC(=O)c1ccc(NC(=O)Cn2ccn3nc(-c4ccc(OC)cc4)cc3c2=O)cc1`, the activation was inactive: -3.04%.

Turning to `Cc1ccc(CNC(=O)CCc2c(C)nc3c(-c4ccc(F)cc4)c(C)nn3c2C)cc1`, the activation is inactive: -2.13%. With `CCCN(CCC)C(=O)Cn1c(=O)n(CCCCCC(=O)Nc2ccccc2)c(=O)c2sccc21` the figure was inactive: -24.9%.

In the case of `COc1ccc2c(c1)c1c(c(=O)n(-c3ccccc3C)c(=O)n1CC(N)=O)n2C`, the activation is inactive: -7.91%. Next, `CCc1sc(Nc2cccc(Cl)c2)nc1-c1cc2cccc(OC)c2oc1=O`: inactive: -27.9%; `Cc1nn2c3c(cnc2c1-c1ccc(Cl)cc1)C(=O)CC(c1ccc(C(C)C)cc1)C3` (configuration not stated): inactive: 13.3%.

For the compound `COc1ccc(NC(=O)CN2C(=O)C(C)(C)c3cc(S(=O)(=O)N4CCCCC4)ccc32)cc1Cl`, the activation is inactive: 18.5%. Next, `Cc1c(C(=O)OCc2ccccc2)[nH]c2c1C(=O)CC(c1ccc(N(C)C)cc1)C2` (configuration not stated): inactive: -0.0625%. Next, `Cc1ccc(S(=O)(=O)C(CNC(=O)COc2ccccc2)c2cccs2)cc1` (configuration not stated): inactive: 31.1%.

As to `O=c1oc2cc(O)ccc2cc1-c1nc(-c2ccc(Cl)c(Cl)c2)cs1`, the activation is inactive: 22.3%. With `COc1cccc(-n2c(SCC(=O)c3ccccc3)nc3c([nH]c4ccccc43)c2=O)c1` the figure was inactive: -18.3%; with `COC(=O)C1=C(C)NC(=O)NC1c1cn(-c2ccccc2)nc1-c1ccc(OC)c(Br)c1` (configuration not stated), inactive: 17.8%; with `Cc1cccc(C)c1Nc1c(-c2ccc(N3CCOCC3)cc2)nc2ncccn12`, inactive: -10.2%.

`COc1ccc(N2CCN(C(=O)CN3CCSc4ccccc43)CC2)cc1`: the activation was inactive: -3.11%. Regarding `CCn1c(=O)cc(OCC(=O)N2CCN(c3ccc(C(C)=O)cc3)CC2)c2ccccc21`, the activation is inactive: 13.8%. With `CN(C(=O)c1c[nH]c2ccc(S(=O)(=O)Nc3cccc(C(F)(F)F)c3)cc2c1=O)C1CCCCC1` the figure was inactive: -13.2%; with `CC(=O)Nc1ccc(NC(=O)CN2C(=O)CC(c3ccco3)Sc3ccccc32)cc1` (configuration not stated), inactive: -17.2%; with `Cc1ccc(-c2cc(C(F)(F)F)n3nc(-c4cccc(Br)c4)cc3n2)cc1`, inactive: 8.72%. With `CNC(=O)c1c(NC(=O)c2cc(=O)c3cc(C)c(C)cc3o2)sc2c1CCCC2`, the activation is inactive: -0.446%. Next, `COc1ccccc1CNC(=O)Cn1c(-c2ccc(F)cc2)cc(C(C)=O)c1C`: inactive: -13.9%. With `Cc1ccc(CSCCC(=O)N2CCN(c3ccc(F)cc3)CC2)cc1`, the activation is inactive: -22.1%.

Consider `O=C(Cn1nc(Cc2ccncc2)c2ccccc2c1=O)Nc1cccc(C(F)(F)F)c1`, for which the activation was inactive: -19%. Next, `COc1ccc(Cl)cc1NC(=O)Nc1c[nH]c(=O)[nH]c1=O`: inactive: 25.8%; `Cc1c(Cl)cccc1N1CCn2c1nc1c2c(=O)n(CC(=O)O)c(=O)n1C`: inactive: -2.44%. Next, `COc1ccccc1NC(=O)c1nn(C)c2c1CS(=O)(=O)c1ccccc1-2`: inactive: -8.62%.

As to `CN(C)S(=O)(=O)c1ccc(C(=O)NCCSc2c(-c3ccc(Br)cc3)[nH]c3ccccc23)cc1`, the activation is inactive: -19.9%. Next, `CCCCNC(=O)CC1Nc2cc(C)c(C)cc2NC1=O` (configuration not stated): inactive: -9.17%.

Turning to `Cc1ccc(NC(=O)C2CCCN(c3ncnc4onc(C)c34)C2)c(Cl)c1` (configuration not stated), the activation was inactive: 24%. With `O=C(CCSCc1ccc(Cl)cc1)NCCc1ccccc1` the figure was inactive: -26%.

For `O=C(NCCc1ccc(Cl)cc1)c1nnc(Cc2ccc(F)cc2)o1`, the activation was inactive: 25.1%. Next, `O=C(O)C1CCCN(CCC=C(c2ccccc2)c2ccccc2)C1` (configuration not stated): inactive: -6.71%; `CCCCc1ccc(Nc2cc(C)nc(-n3nc(C)cc3C)n2)cc1`: inactive: -18.6%. Next, `O=C(Nc1ccc(-c2nc3ccccc3o2)c(O)c1)c1cc(Cl)ccc1Cl`: inactive: -1.51%; `COc1cc(OC)cc(C(=O)Nc2ccc3nc4c(c(Nc5ccc(OC)c(OC)c5)c3c2)CCCC4)c1`: active: 85.5%.

Regarding `CCN(C(=O)CCS(=O)(=O)c1ccc2c(c1)CCN2C(C)=O)c1cccc(C(F)(F)F)c1`, the activation was inactive: -2.67%.

For the compound `O=C(NCC(c1cccnc1)N1CCc2ccccc2C1)C(=O)Nc1ccccc1F` (configuration not stated), the activation is inactive: -17.4%. Turning to `CC1Cc2cc(S(=O)(=O)CCC(=O)Nc3ccc(F)cc3)ccc2N1C(=O)C1CC1` (configuration not stated), the activation is inactive: 1.41%. Regarding `CSc1ccc(CNC(=O)Cn2c(-c3cccs3)cc3cc(F)ccc32)cc1`, the activation is inactive: -19.4%. With `O=C(/C=C\c1ccc2c(c1)OCO2)NC1CC(=O)N(c2ccccc2)C1` (configuration not stated) the figure was inactive: 10.2%; with `CC(=O)O[C@]1(C(C)=O)CC[C@H]2[C@@H]3C=C(Cl)C4=CC(=O)[C@@H]5C[C@@H]5[C@]4(C)[C@H]3CC[C@@]21C`, inactive: 15.1% and inactive: -14.6%; with `CCN1CCc2c(sc(NC(=O)c3ccc(S(=O)(=O)N(C)C4CCCCC4)cc3)c2C(N)=O)C1`, inactive: -15.9%. With `COc1cn(CC(=O)Nc2c(C)cc(C)cc2C)c(CN2CCCCC2)cc1=O` the figure was inactive: -4.81%; with `CCOCCc1nn2c(=O)cc(COC(=O)COc3ccc(C)c(C)c3)nc2s1`, inactive: -9.69%; with `CC(C)c1ccc(NC(=O)c2ccc3oc(=O)c(S(=O)(=O)c4ccc(F)cc4)cc3c2)cc1`, inactive: -12.9%. With `CCc1ccc(NC(=O)CC2C(=O)NCCN2C(=O)c2ccccc2OC)cc1` (configuration not stated) the figure was inactive: -5.67%; with `Cc1nc(SCc2cc(=O)c3cccc(F)c3[nH]2)n[nH]1`, inactive: 2.03%; with `CCOc1ccc(S(=O)(=O)NCCc2csc3nc(-c4ccc(OC)c(OC)c4)nn23)cc1`, inactive: -8.01%. `COc1ccccc1CNCc1ccc(C(=O)O)s1`: the activation is inactive: -21.4%. Next, `Clc1cccc(CSc2nc(NCCc3ccccc3)c3ccccc3n2)c1`: inactive: -26.3%. Next, `CC(C)c1ccc(NC(=O)CSc2ncnc3c2sc2ccccc23)cc1`: inactive: -4.27%; `COc1ccc(NC(=O)Cn2ncc3c(C)n(Cc4cccc(Cl)c4)c(C)c3c2=O)cc1`: inactive: -6.31%. As for `COc1ccc(C(=O)Nc2ccc(N3CCN(c4ccccc4)CC3)c(C(=O)O)c2)cc1`, the activation is inactive: 4.19%. Next, `COc1c(C)cccc1C(=O)Nc1ccc(Cl)c(-c2nc3cc(C)ccc3o2)c1`: inactive: -4.44%; `CCOc1ccc(CCNC(=O)CSc2nc3ccccc3nc2Cc2ccc(C)cc2)cc1OCC`: inactive: 35.3%. Next, `CC(C)CCOc1ccc(Cn2c(=O)sc3ccccc32)cc1`: inactive: -19%; `COc1ccc(-c2nc3sc(CCNC(=O)Cc4ccc(Cl)cc4)c(C)n3n2)cc1`: inactive: -14%. As for `CCN(CC)c1ccc(NC(=O)CN(C)S(=O)(=O)c2cccc3nsnc23)c(C)c1`, the activation is inactive: 0.768%.

Take `CCOc1ccc(C2C(=O)N(C3CCCCCC3)CC(=O)N2Cc2ccc(F)cc2)cc1OC` (configuration not stated): the activation is inactive: -30.5%. Consider `CCN(CC)c1ccc(C(=O)NCc2ccc3c(c2)CCN3C(=O)c2cccc(C)c2)cc1`, for which the activation was inactive: -7.4%. With `CC(=O)OC[C@H]1O[C@@H](n2ncc(=O)[nH]c2=O)[C@H](OC(C)=O)[C@@H]1OC(C)=O` the figure was inactive: 0.313%; with `CCOc1ccccc1NC(=O)Nc1ccc2nc(N3CCN(C)CC3)cc(C)c2c1`, inactive: -3.69%; with `CCOc1ccc(CCNC(=O)C(CC(C)C)N2Cc3ccccc3C2=O)cc1OCC` (configuration not stated), inactive: -9.72%. Next, `COc1ccc(NC(=O)C(NC(=O)Cc2cccs2)c2ccc(OC)cc2)cc1` (configuration not stated): inactive: 0.0022%; `Cc1cc(Br)cc(C)c1NC(=O)c1cnc2ccccn2c1=O`: inactive: -14.4%.

These data come from PubChem BioAssay AID1346428 (National Center for Advancing Translational Sciences (NCATS), 2018).
